Measurements reported in PubChem BioAssay AID759 (NMMLSC, 2007).
The whole screen tested about 190,000 compounds, of which about 270 (0.14%) were called active. This list was built around the results that the source calls inconclusive (neither active nor inactive); the mix of calls is not that of the screen.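 The calls were made as follows: active = GTP binding activity at least 20% away from the 100% baseline, either lowered as inhibitor or raised as activator; inconclusive = flagged as likely green fluorescent, judged across all proteins in the well; inactive = the rest.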

target: GTPase HRas (Homo sapiens) (UniProt P01112); assay: HRas wt fluorescent GTP binding changes, either direction – biochemical, wildtype, bead-based flow cytometry, multiplex, primary screen (AID 759); details: GST-Ras wt beads, Bodipy-FL-GTP binding, at 10 µM, actives lie on both sides;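 also: 0% = unlabeled GTP competition control and 100% = no-compound control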
Chain of UniProt P01112 (P01112 whole entry, looked up): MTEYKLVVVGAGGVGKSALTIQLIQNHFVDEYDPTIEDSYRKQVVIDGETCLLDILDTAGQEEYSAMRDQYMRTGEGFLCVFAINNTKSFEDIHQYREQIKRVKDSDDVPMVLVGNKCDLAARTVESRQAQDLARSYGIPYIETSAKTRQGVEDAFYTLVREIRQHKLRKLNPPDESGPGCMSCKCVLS

Compound	GTP binding activity
CCOC(=O)C1CCCN(C(c2ccccn2)c2c(C)[nH]c3ccccc23)C1 (stereo not given)	inactive: 99%
Cc1nn2c(NCCCN3CCOCC3)c3c(nc2c1-c1ccccc1)CCC3	inconclusive: 96%
CC(=O)c1cc(-c2ccc(F)cc2)n(CCC(=O)Nc2cccc(C)n2)c1C	inactive: 102%
Cc1cccc(N(CC(=O)N2CCN(c3ccccc3F)CC2)S(C)(=O)=O)c1	inconclusive: 93%
Cc1ccc(O)c(NC2=C(Cl)C(=O)N(Cc3ccccc3)C2=O)c1	inconclusive: 90%
NC(=O)COc1ccc(C2c3c(oc4ccccc4c3=O)C(=O)N2CC2CCCO2)cc1 (stereo not given)	inconclusive: 89%
COc1ccc(NC(=S)Nn2cnnc2)cc1OC	inactive: 97%
O=C1NC(=S)N/C1=C\c1ccc(N2CCOCC2)cc1	inconclusive: 89%
CCCC(=O)N1CCN(c2ccc([N+](=O)[O-])c(NC(C)c3ccccc3)c2)CC1 (stereo not given)	inconclusive: 103%
COc1ccc(NC(=O)CO/N=C2\CCCc3nonc32)cc1	inconclusive: 113%
C/C(CCc1ccc2c(c1)OCO2)=N\NC(=O)c1ccccc1Br	inactive: 98%
COc1ccc(C(c2c(C)n(C)n(-c3ccccc3)c2=O)c2c(C)n(C)n(-c3ccccc3)c2=O)cc1O	inconclusive: 96%
CC1CCN(CC(=O)N2CCCc3c2c(=O)oc2ccc(OCc4ccccc4)cc32)CC1	inconclusive: 91%
Cc1cccc(C)c1N1CCN(S(=O)(=O)N2CCCCC2)CC1	inactive: 96%
c1ccc(Nc2cc(-c3ccccc3)nc3ncnn23)cc1	inconclusive: 105%
CCC(=O)Nc1nnc(-c2ccco2)o1	inconclusive: 108%
Cc1ccc(C)c(C(=O)COC(=O)c2ccccc2N2C(=O)C3C4CCC(C4)C3C2=O)c1 (stereo not given)	inconclusive: 103%
Cc1ccccc1NC(=O)c1sc(NC(=O)COc2ccccc2)c(C#N)c1C	inconclusive: 94%
O=C(O)C1CC(=O)N(c2ccc(F)cc2)C1 (stereo not given)	inconclusive: 93%
Nc1nc(-c2ccccc2)nn1S(=O)(=O)c1ccccc1	inconclusive: 95%
Cc1ccc(-c2nc(N)n(S(C)(=O)=O)n2)cc1	inconclusive: 93%
Cc1ccc(Nc2nc(N)nc(CSC(=S)N3CCOCC3)n2)cc1	inconclusive: 106%
COc1cc(/C=C2/NC(=O)NC2=O)cc(Br)c1OCc1ccc(C(=O)O)cc1	inconclusive: 90%
COc1ccc(/C=C/c2nc3ccccc3n2C)cc1	inconclusive: 98%
Cc1ccc(C(=O)N/C(=C/c2ccccc2)C(=O)NCC2CCCO2)cc1 (stereo not given)	inactive: 98%
